We go through 26 compounds from ChEMBL document CHEMBL1157539, “Thousands of chemical starting points for antimalarial lead identification” (Nature, 2010).

The structures appear in SMILES notation. The full ranking holds about 13,000 compounds; the median of “IFI” is about 4, and the highest 2% start at about 17. The list shows a part of the results.

This assay in a line: GSK_TCMDC: Inhibition Frequency Index (IFI). The number of non-kinase HTS assays where a compound showed > 50 % inhibition, expressed as a percentage of the number of such assays in which the compound was tested (-0 is zero). The class given is functional.
For `COc1ccccc1CCNc1ncc(F)c(N[C@@H](Cc2ccccc2)C(=O)NCCc2ccccc2)n1`, the IFI came out at 2.78%.

Take `CN1CCN(c2ccnc3ccc(NC(=O)Nc4cccc5ccccc45)cc23)CC1`: the IFI came out at 1.48%.

Compound `Cc1cccc(C(O)CNc2ccnc(Nc3cccc(-c4csc(C)n4)c3)n2)c1` (stereo unspecified) yielded an IFI of 13.6%.

In turn, `Cc1ccc(S(=O)(=O)NC2CCN(CCNC(=O)Nc3cc(C)nc4ccccc34)C2)cc1` (stereo unspecified) displayed an IFI of 0%.

For `COc1ccc2nc3cc(Cl)ccc3c(NCCN(C)C)c2c1`, the IFI was 5.88%.

In turn, `O=S(=O)(c1ccc(Cl)cc1Cl)N1CCCCC(c2ccc(C(F)(F)F)cc2)=N1` registered an IFI of 2.19%.

Regarding `O=C(Nc1ccncc1)Nc1ccc2c(c1)CCN(C1CCC1)CC2`, the IFI came to 0.74%.

Compound `COc1ccc(NC(=O)/C=C/c2ccccc2Cl)cc1OCCN1CCC(NCc2cccnc2)CC1` gave an IFI of 1.4%.

`Cc1cc(OCCCN2CCN(CCN3CCOCC3)CC2)ccc1NC(=O)COc1ccc(Cl)cc1C(=O)c1cc(Cl)cc(C#N)c1` returned an IFI of 12.7%.

In turn, `COc1cc(OC)c2c(C)cc(NCCCN3CCOCC3)nc2c1` had an IFI of 0.75%.

As for `CCc1cc(-c2onc(C(F)(F)F)c2-c2ccccc2)c(O)cc1OC`, the IFI stood at 7.56%.

For `COCCNCc1ccc(-c2ccc(CNC3CCN(Cc4ccccc4)CC3)cc2)cc1`, the IFI amounted to 2.86%.

`N#Cc1ccc2c(c1)CN(CCC1CCC(NC(=O)c3cc4ccccc4cc3N)CC1)CC2` (stereo unspecified) showed an IFI of 5.11%.

As for `CN(C)CCOc1cc(NC(=O)/C=C/c2cccc3ccccc23)ccc1I`, the IFI turned out to be 5.11%.

`COc1ccc(-n2nc(C(=O)NCCC3=CCCCC3)c3ccccc3c2=O)cc1` came in with an IFI of 1.03%.

`c1ccc(C2CCC(N3CCC(N4CCCC4)CC3)CC2)cc1` (stereo unspecified) returned an IFI of 0.82%.

With `CC(C)CCN1CCC(Oc2ccc(NC(=O)c3cccs3)cc2Cl)CC1`, the IFI was 8.06%.

Regarding `Cc1cccc2nc(-c3cccc(-c4cccc(NC(=O)CCc5c[nH]cn5)c4)c3)[nH]c12`, the IFI stood at 1.74%.

Take `CN(C(=O)/C=C/c1c(Cl)cccc1Cl)C1CCN(CCCCCNC(=O)/C=C/c2ccc(Cl)c(Cl)c2)CC1`: the IFI is 12.9%.

In turn, `CC(=O)Nc1cccc(C(=O)Nc2nc3ccc(-c4cc(=O)[nH]c(Nc5ccccc5Cl)n4)cc3[nH]2)c1` showed an IFI of 3.82%.

`Cn1cccc1C(=O)Nc1cccc(-c2nn3ccccc3c2-c2ccnc(Nc3ccc4c(c3)OCCO4)n2)c1` returned an IFI of 3.13%.

With `CNC(=O)CC(=O)NCCc1ccc(Cl)cc1`, the IFI is 0%.

In the case of `CC(C)COc1ccc(Cl)cc1Nc1nc(-c2nc3ccccc3[nH]2)cs1`, the IFI came to 6.67%.

The compound `CN(C)CCOc1cc(NC(=O)Nc2ccc(-c3ccccc3)cc2Cl)ccc1I` returned an IFI of 11.1%.

`O=C(c1cccc(-c2noc(C(F)(F)F)n2)c1)N1CCN(C(=O)c2ccc3cc[nH]c3c2)CC1`: the IFI stood at 1.92%.

Compound `Cc1ccc2[nH]cc(/C=C/C(=O)NC3CCC(CCN4CCc5ccc(C#N)cc5CC4)CC3)c2c1` (stereo unspecified) yielded an IFI of 6.85%.
